Read counts are not given, so values of variants with three or more changes are uncertain.
B1: LINE1-mini (parent)
chain: GGCAGAGCUCAACACAGCGUGGCAAAGUGGCUGUGGCUAGACUGCC

Variants of: B1
Experiment: self-cleavage, relative activity (ratio to wild type); higher = more cleavage; in vitro, sequencing; the parent is a self-cleaving ribozyme

Row | Variant | self-cleavage
1 | GGCAGAGCUCAACACAGCGUGUCUAAGUCGUUGUGGCUAGACUGCC [G22U A24U G29C C31U] | 0.19
2 | GGCAGAGCUCAACACAGCGUGCCAAAGUGGCUGUCGCAAGCCUGCC [G22C G35C U38A A41C] | 0.06
3 | GGCAGAGCUCAACACAGCGUGUCAUAGUGGCUGUGGCUAGACAGCC [G22U A25U U43A] | 0.11
4 | GGCAGAGCUCAACACAGCGUGCCAAAUUGGCUGUGGCUGGAUUGCC [G22C G27U A39G C42U] | 0.02
5 | GGCAGAGCUCAACACAGCGUGCCAAAGUGGCUGUGACUAAACUGCC [G22C G36A G40A] | 0.13
6 | GGCAGAGCUCAACACAGCGUGUCAAACUGGCUGUGGCUAGGCUGCC [G22U G27C A41G] | 0.1
7 | GGCAGAGCUCAACACAGCGUGUCAAAGUAGCUGUGGUUAGACUGCC [G22U G29A C37U] | 0
8 | GGCAGAGCUCAACACAGCGUGUACUAGUGGCUGUGGCUAGACUCCC [G22U C23A A24C A25U G44C] | 0.42
9 | GGCAGAGCUCAACACAGCGUGCCAAAGUGGCUGAGGCUAGCCUGCC [G22C U34A A41C] | 0.04
10 | GGCAGAGCUCAACACAGCGUGCGAAAGGGGCUGUGGCUAGACUGCC [G22C C23G U28G] | 0.42
11 | GGCAGAGCUCAACACAGCGUGUCAAAGUUGCUGUGGCUAAACUGCC [G22U G29U G40A] | 0.17
12 | GGCAGAGCUCAACACAGCGUGUAAAAGUGGCUGUGGCUAGAAUGCC [G22U C23A C42A] | 0.05
13 | GGCAGAGCUCAACACAGCGUGCUAAAGAGGCUGUGGCUAGACUGCC [G22C C23U U28A] | 2.9
14 | GGCAGAGCUCAACACAGCGUGCUAACGUGGCUGUGGCUAGACUGCC [G22C C23U A26C] | 0.27
15 | GGCAGAGCUCAACACAGCGUGUCUAAGUGGCUGUGACUAGACUGCC [G22U A24U G36A] | 0.39
16 | GGCAGAGCUCAACACAGCGUGCCAAAGUGGCUGUGGUGAGGCUGCC [G22C C37U U38G A41G] | 0.01
17 | GGCAGAGCUCAACACAGCGUGCCAAAGUAGCUAUGGCUAGACUGCC [G22C G29A G33A] | 0.38
18 | GGCAGAGCUCAACACAGCGUGCCAAAGAGGCUGUGGCUAGACUGGC [G22C U28A C45G] | 0.09
19 | GGCAGAGCUCAACACAGCGUGCCAAAGUUACUGUGGCUAGACUGCC [G22C G29U G30A] | 1.08

Row | Variant | self-cleavage
20 | GGCAGAGCUCAACACAGCGUGCCAAAGUUCCUGUGGCUAGACUGCC [G22C G29U G30C] | 0.17
21 | GGCAGAGCUCAACACAGCGUGUCAAAGUGGGUGUGGAUAGACUGCC [G22U C31G C37A] | 0.04
22 | GGCAGAGCUCAACACAGCGUGCCAAAGUGGCUGAGGCUAGAGUGCC [G22C U34A C42G] | 0.03
23 | GGCAGAGCUCAACACAGCGUGCCAAAGUGGAUGUUGCUAGACUGCC [G22C C31A G35U] | 0.04
24 | GGCAGAGCUCAACACAGCGUGCCAAAGUGGAUGUAGCUAGACUGCC [G22C C31A G35A] | 0.08
25 | GGCAGAGCUCAACACAGCGUGUAAAAGUGGCUGUGGCUAGACUGCU [G22U C23A C46U] | 1.09
26 | GGCAGAGCUCAACACAGCGUGCCAAAGGUGCUGUGGCUAGACUGCU [G22C U28G G29U C46U] | 0.66
27 | GGCAGAGCUCAACACAGCGUGUAUAAGUGGCUGUGGCCAGACUGAU [G22U C23A A24U U38C C45A C46U] | 0.38
28 | GGCAGAGCUCAACACAGCGUGCCAAAGAGGCUGUGACUACACUGCC [G22C U28A G36A G40C] | 0.03
29 | GGCAGAGCUCAACACAGCGUGCUAAAGUGGCUAUGGCUACACUGCC [G22C C23U G33A G40C] | 0.05
30 | GGCAGAGCUCAACACAGCGUGUCAAAGUGGCUAUGGCUAGACUGAA [G22U G33A C45A C46A] | 0.05
31 | GGCAGAGCUCAACACAGCGUGCCAAAGUGACUCUGGCUAGACUGCC [G22C G30A G33C] | 0.09
32 | GGCAGAGCUCAACACAGCGUGCCAAAUUGGCUGAGGCUAGACUGCC [G22C G27U U34A] | 0.21
33 | GGCAGAGCUCAACACAGCGUGUCAAUGUGGCUGUAGUUAGACUGCC [G22U A26U G35A C37U] | 0.07
34 | GGCAGAGCUCAACACAGCGUGUCAAAGUGCCCGUCGCUAGACUGCC [G22U G30C U32C G35C] | 0.15
35 | GGCAGAGCUCAACACAGCGUGUUAAAGUGGCUGUGUCUAAACUGCC [G22U C23U G36U G40A] | 0.32
36 | GGCAGAGCUCAACACAGCGUGUCAAAGUGGCUGUGCCUAGUCUGCC [G22U G36C A41U] | 0.34
37 | GGCAGAGCUCAACACAGCGUGCCAAAGUGGCUGUGGCAAGACUGCA [G22C U38A C46A] | 0.25
38 | GGCAGAGCUCAACACAGCGUGUGAAAGUGGCUGUAGCUAGACUGCC [G22U C23G G35A] | 0.14

Row | Variant | self-cleavage
39 | GGCAGAGCUCAACACAGCGUGUAAAAGUGGCUCUGGAUAGACGGCG [G22U C23A G33C C37A U43G C46G] | 0.02
40 | GGCAGAGCUCAACACAGCGUGUAACAGUGGCUGUGGCUAGACUGCC [G22U C23A A25C] | 0.52
41 | GGCAGAGCUCAACACAGCGUGCCAAAGUGGAUGUGGCUAUACUGCC [G22C C31A G40U] | 0.08
42 | GGCAGAGCUCAACACAGCGUGCCAAAGUGGCUGUGGAUAGAAUGCC [G22C C37A C42A] | 0.04
43 | GGCAGAGCUCAACACAGCGUGUCACAGUGGUUGUGGCUAGUCUGCC [G22U A25C C31U A41U] | 0.1
44 | GGCAGAGCUCAACACAGCGUGUCAAAGUGGCUGUGGGUCGACUGCC [G22U C37G A39C] | 0.04
45 | GGCAGAGCUCAACACAGCGUGCCAAAGGGGCUGUGGCUAGAGUGCC [G22C U28G C42G] | 0.03
46 | GGCAGAGCUCAACACAGCGUGUCAAUGUGGCUGUUGCUAGAAUGCC [G22U A26U G35U C42A] | 0.04
47 | GGCAGAGCUCAACACAGCGUGUCAAAGUGGCUUUGGCUAGACAGCC [G22U G33U U43A] | 0.04
48 | GGCAGAGCUCAACACAGCGUGCCAAAGUGGCUCUGGUUAGACUGCC [G22C G33C C37U] | 0.04
49 | GGCAGAGCUCAACACAGCGUGCCAAAGUGGCUGUGGCUAUACUGUC [G22C G40U C45U] | 0.08
50 | GGCAGAGCUCAACACAGCGUGUGAAAGUGGCUGUGGGUAGACUGCC [G22U C23G C37G] | 0.04
51 | GGCAGAGCUCAACACAGCGUGUCAAUGUAGCUGUGGCUAGCCUGCC [G22U A26U G29A A41C] | 0.02
52 | GGCAGAGCUCAACACAGCGUGUCAAAGUGGCUAUGGCCAGACUGCU [G22U G33A U38C C46U] | 0.17
53 | GGCAGAGCUCAACACAGCGUGUGAAAGUGGCUGUGGCGAGUCUGCC [G22U C23G U38G A41U] | 0.02
54 | GGCAGAGCUCAACACAGCGUGUCAAAAUGGCUGUGGCUAGAAUGCA [G22U G27A C42A C46A] | 0.04
55 | GGCAGAGCUCAACACAGCGUGUCGAAGUAGCUGUGGCUAGACUCCC [G22U A24G G29A G44C] | 0.67
56 | GGCAGAGCUCAACACAGCGUGUCAAAGUGGGUAUGGCUAGACUGCC [G22U C31G G33A] | 0.03

Source: the RNAGym collection of RNA variant scans (doi:10.7554/elife.90254)
